This is one part of the list.

For this assay, the system named is PfAP2-HC AP2 domain (GST-tagged). Nature of the assay: gcPBM binding intensity (ln(normalized median fluorescence intensity)); higher = stronger DNA binding. The gist of the method: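 DNA-binding domains from P. falciparum, fused to GST and produced in E. coli, were put on an Agilent 4 × 180k double-stranded probe array for 1 h in 1× PBS holding 1% milk, 0.2 mg/ml BSA, 0.5% salmon testes DNA and 0.03% Triton X-100. Probes were primer-extended, 36 bp long and drawn from intergenic genomic regions, with negative controls included. After Alexa488 anti-GST antibody detection and a 488 nm scan, binding intensity was set as the highest Masliner-normalised natural-log median intensity across replicate spots of either probe orientation.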
Turning to “ATATATGTGCGCGTATGTACATAAAATAAATATACA [XGTACX_site2689]”, the “gcPBM binding intensity (ln)” value amounted to 10.1.

Regarding “TAAATAAAAAAAAAAAGTACATACATACAAACATAT [XGTACX_site4427]”, the “gcPBM binding intensity (ln)” value came out at 9.81. Consider “TAATTCTAAATAAATGTACACACAAAAATAAATGTA [CACACA_site8509]”, for which the “gcPBM binding intensity (ln)” value is 9.81.

On to “TATATATATATTATATGTACATAAATATTTATACTC [XGTACX_site114]”, for which the “gcPBM binding intensity (ln)” value came to 9.64.

In the case of “TTATAAAATTTTCTTCTATATTTTAATTATTCTCAT [TGCATGCA_negctrl_site571]”, the “gcPBM binding intensity (ln)” value was 9.54. For “CTATTTTATATGTGCACACATATACACCCACAAATA [CACACA_site1131]”, the “gcPBM binding intensity (ln)” value came out at 9.98. Then “TTGATAAAATGGGAGAAATTAAAAAGGAAAAAAAAA [CACACA_negctrl_site1279]”, with 9.5; and “TATACAATATATTTTGGTACACAAACAAAAAAATAT [XGTACX_site2522]”, with 9.79; and “ATTAAAAGAACCAAGTGTACATTCTATATATAAAAA [XGTACX_site4260]”, with 9.68. Consider “GAAAAAGACAAAAGGTGTACAATATGAAATATATAT [XGTACX_site373]”, for which the “gcPBM binding intensity (ln)” value amounted to 9.91.

As to “GTTCACCAAAGGTAACGTACACAAACATATATATAT [XGTACX_site1073]”, the “gcPBM binding intensity (ln)” value came out at 9.61. Turning to “ATATTATGATCTATTTTTATATTCTATTTGATAAAT [CACACA_negctrl_site1070]”, the “gcPBM binding intensity (ln)” value was determined as 9.59. Regarding “AAAATAATAATTAAATAATAGTAAATGAAAAATAAA [CACACA_negctrl_site57]”, the “gcPBM binding intensity (ln)” value was determined as 9.72. As to “AAGTTTATTATATATAAATTATTATATATATATATA [CACACA_negctrl_site189]”, the “gcPBM binding intensity (ln)” value turned out to be 9.55.

On to “TATGTGTTCAGTATTGCACACACACTCCAAAATAAA [CACACA_site8018]”, for which the “gcPBM binding intensity (ln)” value came out at 10. Take “ACTTCATTTTATAAGTGTACATAATTTGTTTATATA [XGTACX_site5453]”: the “gcPBM binding intensity (ln)” value came out at 9.75. The figure for “ATAAATACTAGGCACACACACATATAGATTTATATA [CACACA_site7064]” is 10.8; for “GTTGTCCCCCTTTCTATGCACACTTTAAATTATTCA [CACACA_site52]” it is 10. Then “ATTCTAATAGATAGTAGTACCTATAAGTTTTCTTTT [XGTACX_site2315]”, with 9.54. The figure for “AATTTATAAGAATATTGTACGTTTAATATATTGTAA [XGTACX_site7553]” is 9.52; for “AAACGATCTCGATGTTGTACACATTTATATAGAAAC [XGTACX_site4373]” it is 9.79; for “TACTAAAATATATATATGCAACATGAGATATTCAAC [XGTACX_negctrl_site283]” it is 9.69. Consider “CATGTGTGTATAATTTGTACATATACATAATAAATA [XGTACX_site2418]”, for which the “gcPBM binding intensity (ln)” value was 9.98. The figure for “CTAAACTAAACAAACTGTACACAAATAAAACAATAA [XGTACX_site8880]” is 9.76. As to “ATATCAACTGAATTGTATAGGCGATAAAAGAAAAAA [CACACA_negctrl_site1334]”, the “gcPBM binding intensity (ln)” value is 9.61. Then TTTATACATACATTCGTGCACATACGTATAACATAT, with 9.84; and “ATATAAATATATGTATGTACACATTTTTTTTTTTTT [XGTACX_site247]”, with 9.68; and “AGAATTATAAATTATAGTACATAAAATTTTGATGTA [XGTACX_site5726]”, with 9.54. Consider AACATATTGGATTTAGTGCACATATATATCATAATA, for which the “gcPBM binding intensity (ln)” value is 9.66. Then “AAAAATTACCCTTGTGTACACATATATTATCTGTAT [CACACA_site4513]”, with 10. The figure for “TATAAGCTTTCAATGTGTACATATTATTTTATTATT [XGTACX_site3988]” is 9.77. With “TCTTATAAACATGTATATATTAAAAAAAAAAAAAAA [TGCATGCA_negctrl_site86]”, the “gcPBM binding intensity (ln)” value was found to be 9.17. “TAATAATAATTAAATTGTACATATAATATAATATAA [XGTACX_site8554]”: the “gcPBM binding intensity (ln)” value is 9.55. The figure for “ATATTATCATATTCGAGTACACGAAGTATTATTGCA [XGTACX_site6765]” is 9.57; for “AATAAAGTAATAACTACACACATTTATAAAAAAGTA [CACACA_site3753]” it is 10. The figure for “TAAAAATTACTATATGAACACACATGATTAGATATA [CACACA_site9012]” is 9.7; for “AGGTGATTAATATATACACACATACATATATATATA [CACACA_site8913]” it is 10; for TATATAAATTAACCAGTGCATTATTTGGAAATTATT it is 9.58. The figure for “AACCATAAAAAGTGTACACATATAAAAAATATGGAA [CACACA_site4199]” is 9.94; for “ATATATCATCATGTATGTACACACATACATATATTA [XGTACX_site2814]” it is 10.2.

For “TATGCTTTTACAATGTGTACTTATATTTTTCACAGG [XGTACX_site6201]”, the “gcPBM binding intensity (ln)” value came to 9.73. On to “TAATTTTCAATAATTTGTACATAATTTTTATAAATT [XGTACX_site8133]”, for which the “gcPBM binding intensity (ln)” value amounted to 9.42. Take “ACAAGAGAAAAAAATACACACAAGATAAAAATGTAT [CACACA_site607]”: the “gcPBM binding intensity (ln)” value was found to be 9.95. With “TAAAAAAATTTTACAAGTACAAAAAAATGTAATAAA [XGTACX_site4829]”, the “gcPBM binding intensity (ln)” value was found to be 9.57. With “ATATATATAGATCGAAGTACAGATAGAATGAAAATA [XGTACX_site2695]”, the “gcPBM binding intensity (ln)” value was found to be 9.8.

For “ATATATATATAATGTAGTACTATTTAATAATAAGCC [XGTACX_site1263]”, the “gcPBM binding intensity (ln)” value is 10.1.

Regarding “ACCATATGTACATTTTTTTTTTTTTTTTTTTTTTTT [CACACA_negctrl_site1188]”, the “gcPBM binding intensity (ln)” value came to 9.74. As to “ACATTCAAGCGTAATTGTACATACATATATATATAT [XGTACX_site8876]”, the “gcPBM binding intensity (ln)” value amounted to 10.

For the sequence “ATGTATATAAATAGTAGTACATTATTTCACACTGTA [XGTACX_site2061]”, the “gcPBM binding intensity (ln)” value worked out at 9.71. The figure for “TATTGTATCCTTAATGCATGCACCAAATAAAAAAAG [TGCATGCA_site541]” is 9.57; for “AAAAAAAAAAAAAAAGCACACACCAATGAGCAGCTT [CACACA_site1845]” it is 9.84. Regarding “CACACCCACAGACACACACACACATATATAATATAT [CACACA_site594]”, the “gcPBM binding intensity (ln)” value came out at 11.4.

As for “TATAATCATATACACGCATGTATAAAATTTAATACT [TGCATGCA_site700]”, the “gcPBM binding intensity (ln)” value is 9.74.

“ATATGTTACAAAGATTGTACTTATTAAGGAGCGACT [XGTACX_site5094]”: the “gcPBM binding intensity (ln)” value was determined as 9.66. Then “TAATATATGTATTATGCATGTGAATAAGCACTTGAT [TGCATGCA_site848]”, with 9.54; and “TGTAAACATAAGATATGTACTTATATCATATTATAA [XGTACX_site6883]”, with 9.6; and “ATGACAATTCAAAATTGTACATAAAAAAAAAAAAAA [XGTACX_site7560]”, with 9.45.

For the origin of these results see the supplement of paper PMC11417369.
